Test results: PubChem BioAssay AID1508623 (National Center for Advancing Translational Sciences (NCATS), 2021)
Among all 48,000 compounds or so, about 450 (0.94%) were called active. About 19% were inconclusive and are not listed. Calls follow the shape of the dose curve; as a rule, active = well fitted inhibition curve with a large enough effect; inconclusive = small, poorly fitted or top-dose-only effect; inactive = no such curve, though single readings can be large or run the other way. This is one part of the list.

Assay: Primary qHTS for Identification of Small Molecule Inhibitors of Huntingtin Promoter Activity; also: nearly all actives have a fitted effect of over 50% in size
Conditions: HEK293 HTT promoter firefly luciferase reporter (activity 0% = vehicle and -100% = no light), 24 h; series mostly up to 57.5 µM; activity change, negative = inhibition: at the top concentration
How it was run: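 HEK293 cells carrying firefly luciferase reporters were seeded at 2,500 per well in Opti-MEM and cultured for 24 h. They were then treated with compounds at up to 57.5 uM final for 24 h at 37 degrees C before Dual-Glo luminescence readout.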

Activity change, negative = inhibition, inactive:
Cc1ccccc1NC(=O)Cn1c(=O)n(CCc2ccccc2)c(=O)c2ccccc21 -0.988%
CCc1nn2c(=O)cc(COC(=O)c3ccccc3NC(=O)COc3ccc(C)c(C)c3)nc2s1 -15.5%
CC(C(=O)Nc1ccc(OC(F)(F)F)cc1)N1Cc2ccccc2C1=O (centres undefined) -29.6%
CCCCn1cc(S(=O)(=O)c2cc(C)ccc2C)c(=O)c2cc(F)c(F)cc21 -22.6%
CCOC(=O)c1cccc(NC(=O)c2oc3c(c2C)-c2nn(CC)cc2CC3)c1 22.3%
Cc1c(Cl)cccc1-n1ncc(C(=O)NC2CCCCC2)c1C1CCN(C(=O)OC(C)(C)C)CC1 -17.1%
COc1ccc(Br)cc1[C@@H]1Nc2ccc(C(=O)O)cc2[C@@H]2C=CC[C@@H]21 -16.9%
CCOc1ccc(CCNC(=O)CSc2nnnn2-c2ccccc2)cc1OCC -14%
C#CCn1c(=O)n(-c2cccc(Cl)c2C)c(=O)c2c3c(sc21)CN(C(C)=O)CC3 3.58%
Cc1ccc(C)c(N2CCN(CCCNC(=O)c3cnn(-c4ccc(F)cc4)c3C3CCN(C(=O)OC(C)(C)C)CC3)CC2)c1 -3.34%
CC(C)C(=O)Nc1nc2c(s1)CC(C(C)(C)C)CC2 (centres undefined) -5.99%
CCOc1ccc(CNC(=O)Cn2nc(C)c3c(C)n(-c4ccc(C)cc4)nc3c2=O)cc1 -26%
O=C(CCS(=O)(=O)c1ccccc1)N(Cc1cccnc1)c1nc2ccc(F)cc2s1 12.6%
CC(=O)c1ccc(-n2c(CCC(=O)O)ccc2-c2cccs2)cc1 -1.42%
Cc1ccc(C)c(CSc2nnc(C)n3c2cc2sccc23)c1 -22.5%
O=C(Cn1c(=O)nc(-c2ccccc2)c2ccccc21)N1CCN(c2ccc(F)cc2)CC1 -8.26%
O=C(CS(=O)(=O)c1cccc2nsnc12)NCc1ccccc1 -9.62%
Cc1noc(/C=C/c2ccccc2F)c1S(=O)(=O)N1CCC(C(=O)NCC(C)c2ccccc2)CC1 (centres undefined) -15.9%
COc1cc(NC(=O)C(Cc2ccccc2)NS(=O)(=O)c2cccs2)cc(OC)c1 (centres undefined) -32.7%
CC(C)Oc1ccccc1NC(=O)CSc1nccn1C -11.6% [at 11.5 µM]
O=C(O)CSc1nc2ccc(NC(=O)COc3ccc(Cl)cc3)cc2s1 -6.22%
Cc1ccc(-n2c(=O)c3c(c4cc(C)ccc4n3C)n(CC(=O)c3ccc(Cl)cc3)c2=O)cc1 -5.58%
Cc1ccc(NC(=O)c2ccc(CN3CC(=O)N4CCCCC4C3=O)cc2)c(C)c1 (centres undefined) -16.7%
COC(=O)c1ccc(NC(=O)CSc2nnc3c4ccccc4n(C(C)C)c3n2)cc1 8.85%
CCOc1cccc(C(=O)Nc2cc(C)c(O)c(-c3nc4ncccc4o3)c2)c1 -18.8%
COc1cccc(Cc2nc3ccccc3nc2SCC(=O)N2CCCc3ccccc32)c1 -1.84%
COc1ccc(CNC(=O)CC(c2ccc(OC)cc2)N2Cc3ccccc3C2=O)cc1 (centres undefined) -13.6%
CCOC(=O)c1c(NC(=O)c2cc(=O)c3cc(C)cc(C)c3o2)sc(C)c1C 13.8%
Cc1ccc(-c2nn(CC(=O)NCc3ccccc3)c3c2cnc2ccc(F)cc23)cc1C 35.7%
COc1ccc(OC)c(-n2c3c(cc(-c4nc(-c5ccc(Cl)cc5)cs4)c2=O)C(=O)CC(C)(C)C3)c1 -10.9%
CCCNC(=O)CN1C(=O)COc2ccc(S(=O)(=O)N3CCC(C)CC3)cc21 -4.05%
COc1ccccc1CNC(=O)CSc1ccc(-c2sc(-c3ccccc3)nc2C)nn1 -0.629%
CCC(=O)N1CCc2cc(S(=O)(=O)NC(Cc3ccccc3)C(=O)Nc3ccccc3C)ccc21 (centres undefined) -20.5%
CC(=O)c1cccc(NS(=O)(=O)c2cc3c(cc2C)n(C)c(=O)c(=O)n3C)c1 0.136%
Cc1cccc(NC(=O)C(=O)NCC(c2ccc3c(c2)OCO3)N2CCN(c3ccccc3)CC2)c1 (centres undefined) -10.5%
CC(C(=O)O)c1ccc(/C=C2\CCCCC2=O)cc1 (centres undefined) 16.4%
O=C(Nc1sc2c(c1C(=O)Nc1ccccc1)CCC2)c1ccc(Br)cc1 -8.47%
CCOCCCNC(=O)C(c1ccccc1)N1Cc2ccccc2C1=O (centres undefined) -8.75%
Cc1cccc(N2CCN(Cc3cc(=O)oc4cc(C)ccc34)CC2C)c1 (centres undefined) -1.49%
CC(C)c1ccc(CNc2nc(-c3ccco3)nn2S(=O)(=O)c2ccc(F)cc2)cc1 -5.3%
Cc1ccccc1N1CC(c2nnc(NC(=O)c3ccco3)s2)CC1=O (centres undefined) -10.2%
Cc1cccc(NC(=O)N2CCC(N3CCN(Cc4ccccc4)C(=O)C3=O)CC2)c1C -2.42%
O=C(c1cc(-c2ccc(F)cc2)on1)N1CCN(c2ccc(F)cc2)CC1 -4.56%
CCCCNS(=O)(=O)c1ccc2nc(-c3cccnc3)cc(C(=O)NC(C)C)c2c1 -31.6%
Cn1nc(C(=O)N2CCN(c3ccccc3F)CC2)c2c1-c1ccccc1S(=O)(=O)C2 12.6%
O=C(CN1C(=O)c2cccc3cccc1c23)Nc1ccccc1Br -12.4%
CCCC1N=C2c3ccccc3N=C(SCC(=O)NCCc3ccc(Cl)cc3)N2C1=O (centres undefined) -3.04%
CCOC(=O)c1ccccc1NC(=O)c1cc2ccc3cccnc3c2[nH]1 10.9%
CCCOC(=O)CSc1nnc(-c2ccccc2)o1 -7.34%
CC(C)NC(=O)c1ccc2c(c1)nc1n2CCCCC1 71.4%
CCOC(=O)COc1ccc(C)cc1C(=O)c1ccn2nc(-c3ccc(Cl)cc3)cc2n1 -12%
Cc1ccc(Nc2nc3ccc(C(=O)c4ccccc4)cc3n3c(C)nnc23)c(C)c1 13.8%
Cc1sc2ncn(CC(=O)N(C)c3ccc(C(C)C)cc3)c(=O)c2c1S(=O)(=O)N1CCC(C)CC1 -20%
COc1ccc(-c2noc(CC(=O)Nc3cc(OC)ccc3OC)n2)cc1 -25%
CC1CCC(NC(=O)C2(C)Cc3ccccc3C(=O)N2Cc2ccc(Cl)cc2)CC1 (centres undefined) -28.1%
CCCn1c(=O)c2sccc2n2c(CCCC(=O)N3CCN(c4cccc(Cl)c4)CC3)nnc12 -12.4%
CC(=O)c1cccc(NC(=O)CN2C(=O)CC(c3ccc(C)cc3C)=Nc3ccccc32)c1 -11.2%
O=C(/C=C/c1ccc(Cl)cc1)N1CCC(c2nc3ccccc3o2)CC1 25.6%
CCCCN(CC)CCCNC(=O)c1cn(CC)c2ccc(S(=O)(=O)N3CCc4ccccc4C3)cc2c1=O -8.83%
CCc1cc2c(cc3c(=O)n(CC(=O)N4CCN(c5cccc(C)c5C)CC4)nc(CC)n32)s1 -9.06%
COc1ccc(CCNCc2c(C(=O)O)c(C)n(Cc3cccc(Cl)c3)c2C)c(OC)c1OC -11.1%
O=C(Cn1cc(C(=O)c2ccccc2)c(=O)c2cc3c(cc21)OCCO3)Nc1ccc(F)c(F)c1 -34.4%
COc1ccc(CCNC(=O)c2cc3c(=O)n(C)c4ccccc4c3s2)cc1OC -16%
O=C(Cn1cc(S(=O)(=O)Cc2ccccc2Cl)c2ccccc21)NCCc1ccccc1 -14.8%
CCOc1ccccc1CNS(=O)(=O)c1cc2c(cc1C)NC(=O)CO2 -1.82%
CCn1nnc2cc(C(=O)Nc3cc(C)ccc3C)ccc21 -11.9%
O=C(NCc1ccc(F)cc1)C(=O)Nc1ccc2nc3n(c(=O)c2c1)CCCCC3 0.384%
COc1ccc(NC(=O)CCNS(=O)(=O)c2ccc3c(c2)CCCC(=O)N3)cc1 -1.53%
Cc1ccc(-c2cc3ncc4c(n3n2)-c2cc(Cl)ccc2OC4)cc1 -11.7%
CCOc1ccc(CC(=O)NCc2ccc3c(c2)CCN3C(=O)c2ccccc2)cc1OCC -17.9%
Cc1cc(C)c(NC(=O)c2oc3c(c2C)-c2[nH]ncc2CC3)c(C)c1 -5.28%
COc1ccc(Cl)cc1NC(=O)CSc1nc2c(oc3ccccc32)c(=O)n1Cc1ccco1 -9.7%
CCCCOc1ccc(C(=O)NCc2cn3cccc(C)c3n2)cc1 -10.5%
Cc1cccc(-c2nc3scc(CCNS(=O)(=O)c4ccc(F)c(C(F)(F)F)c4)n3n2)c1 -27.5%
Cc1ccc(C(=O)Nc2ccc(C(=O)O)cc2)cc1S(=O)(=O)N1CCC(C)CC1 -22.9%
CCCCOc1ccc(C(=O)NCCc2sc3nc(-c4ccc(OC)cc4)nn3c2C)cc1 7.51%
CCOc1cc2c(cc1OCC)C(CC(=O)O)N(C(=O)Nc1ccc(Br)c(C)c1)CC2 (centres undefined) 7.77%
CCN(CC)c1nn2c(=O)c(C(=O)NCCc3ccccc3C)cnc2s1 -17.1%
Cc1ccc(NC(=O)/C=C/c2ccco2)cc1F 48.3%
CCOc1ccc(N(C)C(=O)C2CCN(S(=O)(=O)c3c(C)noc3/C=C/c3ccc(C)cc3)CC2)cc1 -14.9%
Cc1c(C(=O)Nc2ccc(F)c(Cl)c2)sc2nc3n(c(=O)c12)CCC3 38.2%
O=C(NCCc1ccccc1)C1CCN(c2nc3ccccc3nc2C(F)(F)F)CC1 5.63%
CCCCCSc1nnc2c(n1)[nH]c1c(C)cccc12 -25.8%
COCCn1c(SCC(=O)c2ccc(C)cc2)nc2cc(C(=O)NC3CCCC3)ccc2c1=O -3.16%
FC(F)(F)c1cc(Nc2nc3ccccc3c3nncn23)ccc1Cl -7.53%
CCCNC(=O)c1cnn(-c2ccc(C)c(C)c2)c1C1CCN(C(=O)OC(C)(C)C)CC1 -8.68%
CCCOc1ccc(C(=O)N2CCC(c3nc4ccccc4s3)CC2)cc1 -10.2% [at 11.5 µM]
CCc1ccc(/C=C(/C#N)c2nc(-c3ccc(C)cc3)cs2)cc1 1.99%
O=S(=O)(NCC(c1ccco1)N1CCN(c2ccccc2)CC1)c1cc(F)ccc1F (centres undefined) -35.7%
Cc1cc(C)cc(N2CCn3c2nc2c3c(=O)n(Cc3c(F)cccc3Cl)c(=O)n2C)c1 -1.85%
O=C(Cn1c(=O)c(CNc2ccccc2)cc2cc3c(cc21)OCCO3)Nc1ccccc1Cl -27.2%
CCc1ccc2oc(-c3ccc(C)c(NC(=O)Cc4ccccc4)c3)nc2c1 -8.85%
CC(C)(C)OC(=O)N1CCC(c2c(C(=O)NCCN3CCOCC3)cnn2-c2cccc(Cl)c2)CC1 -5.19%
Cn1c(=O)c2c(nc(CN3CCN(c4ccccc4F)CC3)n2Cc2ccc(F)cc2)n(C)c1=O -32.5%
